# In PubChem BioAssay AID1508642 (National Center for Advancing Translational Sciences (NCATS), 2021):
# The whole screen tested about 43,000 compounds, of which about 200 (0.47%) were called active. Not shown: some 12% with an inconclusive outcome. The call rests on the fitted dose curve; in most records, active means well fitted cell-killing curve with a large enough effect; inconclusive means small, poorly fitted or top-dose-only effect, or effect the other way; inactive means flat fitted curve, though single readings scatter. Some of the results follow.
# Assay: Cell viability qHTS assay in S16 Pmp22-F2sN cells; further: nearly all actives have a fitted effect of over 65% in size
# Conditions: S16 Pmp22-F2sN Schwann cells (luciferase reporters placed in the Pmp22 gene) viability, CellTiter-Glo, 24 h; series mostly up to 57.5 µM; activity change, negative = cytotoxicity: at the top concentration
# In short: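 Seed 500-1,000 S16 Pmp22-F2sN cells per well in phenol-red-free DMEM with 10% heat-inactivated FBS; pin-add 23 nL compound; incubate 24 h at 37C; add CellTiter-Glo, wait 15 min protected from light; read luminescence.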
# On the % scale 0 is the no-effect control and ±100 the full control effect; potency means the concentration at half of the fitted maximal effect.
SMILES,"activity change, negative = cytotoxicity",Potency
COc1ccc2c(c1)sc1ncc(C(=O)NCc3cccc(C)c3)c(=O)n12,inactive: -0.919%,
N#Cc1ccccc1Cn1cnc2nc3c(cc2c1=O)CCCC3,inactive: -7.86%,
COc1ccccc1NC(=O)c1sc2nc3c(cc2c1N)CN(Cc1ccccc1)CC3,inactive: -2.79%,
CCNC(=O)c1c(NC(=O)c2nc(S(=O)(=O)CC)ncc2Cl)sc2c1CCCC2,,active: 4.47 µM
COCCn1c(C)cc(O)c(C(c2ccc(F)cc2)N2CCN(c3ccccc3)CC2)c1=O (stereo unspecified),inactive: -0.254%,
CCOC(=O)c1c(C)c(-c2ccccc2)n(CC(=O)NCCc2cccc(C)c2)c1C,inactive: 6.91%,
COc1ccc(CC(=O)NCCS(=O)(=O)N2CCN(c3ccc(F)cc3)CC2)cc1OC,inactive: -22.7%,
O=C(CSc1nc(=O)[nH]c2c1CCCC2)NCc1ccc(F)cc1,inactive: -1.33%,
CCc1cc(=O)[nH]c(SCc2nc(-c3ccccc3)no2)n1,inactive: -3.09%,
Cc1cccc(CC(=O)NCc2nc3cccnc3n2Cc2ccc(F)cc2)c1,inactive: -3.23%,
Cc1nnc2c(N3CCN(c4ccccc4F)CC3)nc3ccc(C(=O)c4ccccc4)cc3n12,inactive: -0.604%,
Cc1cccc(C(=O)NC2=NC(c3ccc(Cl)cc3)CC(=O)N2)c1 (stereo unspecified),inactive: -1.2%,
CCOC(=O)c1c(NC(C)=O)c2c3c(sc2n1Cc1nc(-c2ccccc2Cl)oc1C)CCCC3,inactive: -0.543%,
Cc1ccc(CNC(=O)c2cc3c(s2)-c2c(C)cccc2OC3)cc1,inactive: -11.4%,
COc1ccc(Cn2c(=O)c3ccccc3n3c(-c4cccc(OC)c4OC)nnc23)cc1,inactive: 0.869%,
Cc1cccc(NC(=O)C2CCN(c3cnccn3)CC2)c1,inactive: -0.8%,
CC1CCN(S(=O)(=O)c2ccc3c(c2)oc(=O)n3CC(=O)O)CC1,inactive: 14.7%,
COc1ccc(CC(=O)Nc2ccc3nc(N4CCCCC4)cc(C)c3c2)cc1,inactive: -28.7%,
CCOCCCNC(=O)c1ccc(-n2c(-c3ccccc3)cc3c2CCCCC3)cc1,inactive: 4.7%,
Cc1cc(C)cc(NC(=O)N2CCN(c3cc(-c4noc(C)n4)ccc3C)CC2)c1,inactive: -0.443%,
COc1ccc2c(c1)c1c(c(=O)n(Cc3ccccc3)c(=O)n1CC(=O)NCc1ccccc1)n2C,inactive: -2.25%,
Cc1cc(=O)oc2cc(OCC(=O)Nc3ccc(O)c(C(=O)O)c3)ccc12,inactive: 23.4%,
Oc1ccc(NCc2ccc(OCc3ccccc3)cc2)cc1,,active: 10 µM
CCOc1ccc(CC(=O)N2CCc3cc(OC)c(OC)cc3C2COc2ccc3c(C)cc(=O)oc3c2)cc1 (stereo unspecified),inactive: 2.29%,

SMILES,"activity change, negative = cytotoxicity",Potency
CCCn1cnc2cc(NCc3ccc(OC)cc3OC)ccc21,inactive: -21.7%,
COc1ccc(CNC(=O)Cc2c(C)c3c(cc(C)c4c(C)c(C)oc43)oc2=O)cc1OC,inactive: 18%,
Cc1cccc(Cn2c(SCc3ccc(C(=O)NC4CCCC4)cc3)nc3ccncc32)c1,inactive: -13.9%,
Cc1cccc(-c2noc(CNC(=O)c3ccccc3Br)n2)c1,inactive: 18.6%,
Cc1ccc(NC(=O)c2sc(-n3nc(C)c(Cc4ccc5c(c4)OCO5)c3C)nc2C)cc1Cl,inactive: -11.5%,
CCOc1ccc(NC(=O)CCc2c(C)nc3cc(-c4ccc(Cl)cc4)nn3c2C)cc1,inactive: -0.966%,
CC(C)CNS(=O)(=O)c1ccc(N2CCCCS2(=O)=O)cc1,inactive: -0.918%,
Cc1ccc(CNC(=O)CS(=O)(=O)Cc2nc(-c3ccccc3C)oc2C)cc1,inactive: 4.35%,
CCCCCn1c(=O)[nH]c2cc(C(=O)NCc3ccccc3)ccc2c1=O,inactive: 0.416%,
CCCOc1ccc(NC(=O)C(=O)NCCCN2CCOCC2)cc1,inactive: -3.01%,
O=C(Nc1ccccc1F)C(Cc1ccccc1)n1cccc1 (stereo unspecified),inactive: 8.58%,
COc1cccc(C(=O)Nc2ccc3oc(-c4ccc5ccccc5c4)nc3c2)c1,inactive: 6.42%,
COc1cc(OC)cc(-c2nc3nc(C)c(CCC(=O)Nc4ccc(Cl)cc4)c(C)n3n2)c1,inactive: -0.714%,
Cc1cc(C)c(Nc2nn3c(=O)c4cc5c(cc4nc3s2)OCO5)c(C)c1,inactive: 2.03%,
O=C(Nc1ccc2nc(SCC(=O)N3CCOCC3)sc2c1)c1ccc(F)cc1,inactive: 16.6%,
CCc1ccccc1Nc1nn2c(=O)c3ccc(C(=O)NCc4cccs4)cc3nc2s1,inactive: -18.5%,
CCOC(=O)Cn1c(=O)oc2cc(S(=O)(=O)Nc3cc(OC)cc(OC)c3)ccc21,inactive: -5.4%,
COc1ccccc1C(=O)NCc1ccc2c(c1)CCN2C(=O)c1cccc(C)c1,inactive: 9.22%,
COc1ccc(N2CCN(C(=O)C3CCN(S(=O)(=O)c4cnc[nH]4)CC3)CC2)cc1,inactive: 0.552%,
Cc1cccc(C(=O)Nc2cccc(C(=O)OCc3cc(=O)n4c5c(sc4n3)CCCC5)c2)c1,inactive: -29.6%,
CN1CCN(C(c2ccc(F)cc2)c2sc3nc(-c4ccco4)nn3c2O)CC1 (stereo unspecified),inactive: 0.788%,
CCc1ccc(S(=O)(=O)c2nnn3c2nc(NCc2cccs2)c2sccc23)cc1,inactive: 1.45%,
CCn1c(C)c(C)c2cc(C(=O)NCCc3cc(OC)c(OC)c(OC)c3)ccc21,inactive: -23.8%,
COc1ccccc1C(=O)NCc1ccc2c(c1)CCN2C(=O)c1ccncc1,inactive: 5.82%,

SMILES,"activity change, negative = cytotoxicity",Potency
Cc1cc(NC(=O)CSc2nc3c([nH]c4ccccc43)c(=O)n2-c2cccc(Cl)c2)no1,inactive: -3.71%,
Clc1ccc(-c2noc3ncnc(NCCCN4CCN(c5ccccc5)CC4)c23)cc1,inactive: -2.79%,
COc1ccc(CNS(=O)(=O)c2cc(C(=O)Nc3cc(Cl)cc(Cl)c3)ccc2F)cc1,inactive: -13.7%,
Cc1ccc(C)c(N2CCN(C(=O)C3CCN(S(=O)(=O)c4cn(C)cn4)CC3)CC2)c1,inactive: 2.03%,
CC1=C(C(=O)Nc2cccnc2)C(c2ccc(F)cc2)n2nc(SCc3ccccc3F)nc2N1 (stereo unspecified),inactive: 0.638%,
CCN(C(=O)c1cc2c(Cl)nc3ccccc3c2s1)c1cccc(Cl)c1,inactive: 16.1%,
CCOC(=O)c1cnc2c(C)c(Cl)ccc2c1Nc1ccc(C)cc1C,inactive: -14.8%,
CCOC(=O)N1CCc2c(sc(NCc3ccc(OCC)cc3)c2C(=O)Nc2ccc(OC)cc2OC)C1,inactive: -2.02%,
O=C(NC1CCCC1)c1ccc(CSc2nc3ccncc3n2Cc2ccccc2F)cc1,inactive: 0.558%,
COc1cc(NC(=O)CN(C)S(=O)(=O)c2ccc3[nH]c4c(c3c2)CCCC4)cc(OC)c1OC,inactive: -14.4%,
COc1ccc(OC2CCN(S(=O)(=O)c3ccc(OC)cc3)CC2)cc1,inactive: -10.3%,
O=C(CN(c1ccc(Cl)c(C(F)(F)F)c1)S(=O)(=O)c1ccccc1)N1CCc2ccccc2C1,inactive: -0.835%,
Cc1ccc(NC(=O)c2sc(-n3nc(C)c(CCC(C)C)c3C)nc2C)cc1C,inactive: -7.56%,
Cc1nc2ccn(Cc3cccs3)c(=O)c2cc1C(=O)N1CCN(c2ccc(F)cc2)CC1,inactive: -12%,
Cc1ccc(OCCn2c(CNc3cccc(C)c3)nc3ccccc32)cc1,inactive: -22.2%,
CCCN1CCc2nc(N3CCN(CC)CC3)ncc2C1,inactive: 5.66%,
CCc1ccccc1N(C)C(=O)C1CCCN(c2ncnc3onc(-c4ccc(F)cc4)c23)C1 (stereo unspecified),inactive: 9.05%,
CCCCOC(=O)c1ccc(NC(=O)c2cc(-c3ccccc3)on2)cc1,inactive: -0.265%,
CC(=O)c1ccc(C(=O)N(CCCN(C)C)c2nc3c(C)c(C)ccc3s2)cc1,inactive: 3.39%,
CS(=O)(=O)NCC(c1ccco1)N1CCN(c2ccccc2)CC1 (stereo unspecified),inactive: 15%,
COc1ccccc1CNc1cc(-c2ccccc2)nc2nncn12,inactive: -13.6%,
CCOc1cccc(C(=O)Nc2c(C(=O)c3ccc(OC)cc3)oc3ccccc23)c1,inactive: -2.68%,
O=C(CC1N=C2c3ccccc3N=C(SCC(=O)Nc3cccc(Cl)c3)N2C1=O)NCc1cccs1 (stereo unspecified),inactive: -14.8%,
CC1CCN(S(=O)(=O)c2ccc(N3CCCCS3(=O)=O)cc2)CC1,inactive: -4.81%,

SMILES,"activity change, negative = cytotoxicity",Potency
COc1ccc(CCNC(=O)Cn2cc(S(=O)(=O)Cc3ccccc3F)c3ccccc32)cc1OC,inactive: -2.86%,
Cc1cccc(Cn2c(=O)n(CCC(=O)NCc3ccc4c(c3)OCO4)c(=O)c3sccc32)c1,inactive: 1.16%,
COc1ccc2c(c1)Cc1sc(NC(=O)c3ccccc3Br)nc1-2,inactive: -11.6%,
CCn1c(SCC(=O)Nc2ccc(C)cc2Br)nnc1-c1nonc1NC(C)=O,inactive: -0.526%,
Cc1ccc(C)n1-c1nnc(N2CCC(C(=O)Nc3ccccc3Br)CC2)s1,inactive: -0.0795%,
CCn1ccc2cc(S(=O)(=O)N3CCCN(C(=O)Nc4ccccc4C(F)(F)F)CC3)ccc21,inactive: 1.25%,
COc1cccc(CNC(=O)CSc2nc(=O)[nH]c3c2CCCC3)c1,inactive: 0.634%,
Oc1c(C(c2ccc(Cl)cc2Cl)N2CCOCC2)sc2nc(-c3ccco3)nn12 (stereo unspecified),inactive: 3.54%,
CCc1ccc(NC(=O)Cn2c(=O)c(-c3ccccc3NC(C)=O)nc3ccccc32)cc1,inactive: -4.12%,
Cc1ccc2c(=O)cc(C(=O)Nc3nnc(CC(C)C)s3)oc2c1C,inactive: 1.38%,
Cc1nc(N2C(=O)c3oc4ccccc4c(=O)c3C2c2ccccc2F)sc1C (stereo unspecified),inactive: -17.5%,
COc1cccc(N2CCN(S(=O)(=O)c3cc(Br)cc4c3N(C(=O)C3CC3)CC4)CC2)c1,inactive: 19.5%,
COc1ccc(C2=NS(=O)(=O)N(C)C(C(=O)Nc3cc(C)ccc3O)=C2)cc1OC,inactive: 0.701%,
CCOC(=O)c1c(C)n(-c2ccccc2)c2ccc(OC(=O)c3ccccc3)cc12,inactive: -10.6%,
Cc1ccc(C)c(CSc2nc3ncccc3[nH]2)c1,inactive: -19.2%,
Cc1cccc(N2C(=O)CSC23C(=O)N(Cc2cccc(F)c2)c2ccccc23)c1 (stereo unspecified),inactive: 0.631%,
CN1CCN(C(CNC(=O)C(=O)Nc2ccccc2)c2ccc3c(c2)OCO3)CC1 (stereo unspecified),inactive: 11.1%,
CC(C)COC(=O)/C(C#N)=C\c1ccc(-c2ccccc2Cl)o1,inactive: -1.48%,
COc1ccccc1CNS(=O)(=O)c1cc(C(=O)Nc2cccc(C(F)(F)F)c2)ccc1F,inactive: -9.59%,
Cc1c(CC(=O)NCCc2ccccc2F)c(=O)oc2c(C)c3occ(C(C)(C)C)c3cc12,inactive: -26.5%,
COc1cccc(N2CCN(C(=O)c3ccc4c(=O)n(CCc5ccccc5)c(=O)[nH]c4c3)CC2)c1,inactive: 26%,
COc1ccc(NC(=O)CSc2cn(CC(=O)N3CCOCC3)c3ccccc23)cc1OC,inactive: 2.4%,
Cc1ccc(C)c(NC(=O)CCN2C(=O)c3ccccc3Sc3ncccc32)c1,inactive: -1.28%,
O=C(CSc1ncc(S(=O)(=O)c2ccc(Br)cc2)c(=O)[nH]1)NCc1ccc(Cl)cc1,inactive: 2.58%,
